The list shows a part of the results.
Assays:
Assay in all cases: glycan array binding signal (z-score within array); higher = stronger binding
Settings in all cases: glycan notation: IUPAC condensed, linker removed
[1] = target: Fuc(a1-2)Gal(b1-4)GlcNAc(b1-3)Gal(b1-4)GlcNAc(b1-3)Gal(b1-4)GlcNAc
Outline: (§1)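 Negative Z-scores can be read as non-binding. The Z-score is calculated within each array and then averaged across arrays of one protein sequence at different concentrations or buffers and across linkers. Arrays, 3228 in all, were curated from the Consortium for Functional Glycomics database and kept only where the protein sequence was available.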

[2] = target: Fuc(a1-2)Gal(b1-4)GlcNAc(b1-3)GalNAc
Outline: as §1

[3] = target: Fuc(a1-2)Gal(b1-4)GlcNAc(b1-3)[Fuc(a1-2)Gal(b1-4)GlcNAc(b1-6)]GalNAc
Outline: as §1

[4] = target: Fuc(a1-2)Gal(b1-4)GlcNAc(b1-3)[Fuc(a1-3)[Gal(b1-4)]GlcNAc(b1-6)]Gal(b1-4)Glc
Outline: as §1

[5] = target: Fuc(a1-2)Gal(b1-4)GlcNAc(b1-6)GalNAc
Outline: as §1

[6] = target: Fuc(a1-2)Gal(b1-4)GlcNAc6S
Outline: as §1

[7] = target: Fuc(a1-2)Gal(b1-4)[Fuc(a1-3)]GlcNAc
Outline: as §1

[8] = target: Fuc(a1-2)Gal(b1-4)[Fuc(a1-3)]GlcNAc(b1-2)Man(a1-3)[Fuc(a1-2)Gal(b1-4)[Fuc(a1-3)]GlcNAc(b1-2)Man(a1-6)]Man(b1-4)GlcNAc(b1-4)[Fuc(a1-6)]GlcNAc
Outline: as §1

[9] = target: Fuc(a1-2)Gal(b1-4)[Fuc(a1-3)]GlcNAc(b1-2)[Fuc(a1-2)Gal(b1-4)[Fuc(a1-3)]GlcNAc(b1-4)]Man(a1-3)[Fuc(a1-2)Gal(b1-4)[Fuc(a1-3)]GlcNAc(b1-2)Man(a1-6)]Man(b1-4)GlcNAc(b1-4)GlcNAc
Outline: as §1

[10] = target: Fuc(a1-2)Gal(b1-4)[Fuc(a1-3)]GlcNAc(b1-3)Gal(b1-4)[Fuc(a1-3)]GlcNAc
Outline: as §1

[11] = target: Fuc(a1-2)Gal(b1-4)[Fuc(a1-3)]GlcNAc(b1-3)Gal(b1-4)[Fuc(a1-3)]GlcNAc(b1-3)Gal(b1-4)[Fuc(a1-3)]GlcNAc
Outline: as §1

[12] = target: Fuc(a1-2)Gal(b1-4)[Fuc(a1-3)]GlcNAc(b1-3)GalNAc
Outline: as §1

[13] = target: Fuc(a1-2)Gal(b1-4)[Fuc(a1-3)]GlcNAc(b1-3)[Neu5Ac(a2-6)Gal(b1-4)GlcNAc(b1-6)]Gal(b1-4)Glc
Outline: as §1

[14] = target: Fuc(a1-2)Gal3S(b1-4)GlcNAc
Outline: as §1

[15] = target: Fuc(a1-2)Gal6S(b1-3)GlcNAc
Outline: as §1

[16] = target: Fuc(a1-2)Gal6S(b1-3)GlcNAc6S
Outline: as §1

Fuc(a1-2)Gal6S(b1-4)Glc = target: Fuc(a1-2)Gal6S(b1-4)Glc
Outline: as §1

[17] = target: Fuc(a1-2)Gal6S(b1-4)Glc6S
Outline: as §1

Fuc(a1-2)[Gal(a1-3)]Gal = target: Fuc(a1-2)[Gal(a1-3)]Gal
Outline: as §1

[18] = target: Fuc(a1-2)[Gal(a1-3)]Gal(b1-3)GalNAc
Outline: as §1

[19] = target: Fuc(a1-2)[Gal(a1-3)]Gal(b1-3)GalNAc(b1-3)Gal(a1-4)Gal(b1-4)Glc
Outline: as §1

[20] = target: Fuc(a1-2)[Gal(a1-3)]Gal(b1-3)GlcNAc
Outline: as §1

[21] = target: Fuc(a1-2)[Gal(a1-3)]Gal(b1-3)GlcNAc(b1-2)Man(a1-3)[Fuc(a1-2)[Gal(a1-3)]Gal(b1-3)GlcNAc(b1-2)Man(a1-6)]Man(b1-4)GlcNAc(b1-4)GlcNAc
Outline: as §1

[22] = target: Fuc(a1-2)[Gal(a1-3)]Gal(b1-3)GlcNAc(b1-2)Man(a1-3)[Fuc(a1-2)[Gal(a1-3)]Gal(b1-3)GlcNAc(b1-2)Man(a1-6)]Man(b1-4)GlcNAc(b1-4)[Fuc(a1-6)]GlcNAc
Outline: as §1

[23] = target: Fuc(a1-2)[Gal(a1-3)]Gal(b1-3)GlcNAc(b1-3)GalNAc
Outline: as §1

[24] = target: Fuc(a1-2)[Gal(a1-3)]Gal(b1-3)GlcNAc(b1-6)GalNAc
Outline: as §1

[25] = target: Fuc(a1-2)[Gal(a1-3)]Gal(b1-4)Glc
Outline: as §1

[26] = target: Fuc(a1-2)[Gal(a1-3)]Gal(b1-4)GlcNAc
Outline: as §1

[27] = target: Fuc(a1-2)[Gal(a1-3)]Gal(b1-4)GlcNAc(b1-2)Man
Outline: as §1

[28] = target: Fuc(a1-2)[Gal(a1-3)]Gal(b1-4)GlcNAc(b1-2)Man(a1-3)[Fuc(a1-2)[Gal(a1-3)]Gal(b1-4)GlcNAc(b1-2)Man(a1-6)]Man(b1-4)GlcNAc(b1-4)GlcNAc
Outline: as §1

[29] = target: Fuc(a1-2)[Gal(a1-3)]Gal(b1-4)GlcNAc(b1-2)Man(a1-3)[Fuc(a1-2)[Gal(a1-3)]Gal(b1-4)GlcNAc(b1-2)Man(a1-6)]Man(b1-4)GlcNAc(b1-4)[Fuc(a1-6)]GlcNAc
Outline: as §1

[30] = target: Fuc(a1-2)[Gal(a1-3)]Gal(b1-4)GlcNAc(b1-3)GalNAc
Outline: as §1

[31] = target: Fuc(a1-2)[Gal(a1-3)]Gal(b1-4)GlcNAc(b1-3)[Fuc(a1-2)[Gal(a1-3)]Gal(b1-4)GlcNAc(b1-6)]GalNAc
Outline: as §1

[32] = target: Fuc(a1-2)[Gal(a1-3)]Gal(b1-4)GlcNAc(b1-6)GalNAc
Outline: as §1

[33] = target: Fuc(a1-2)[Gal(a1-3)]Gal(b1-4)[Fuc(a1-3)]Glc
Outline: as §1

[34] = target: Fuc(a1-2)[Gal(a1-3)]Gal(b1-4)[Fuc(a1-3)]GlcNAc
Outline: as §1

[35] = target: Fuc(a1-2)[Gal(a1-3)]Gal(b1-4)[Fuc(a1-3)]GlcNAc(b1-3)GalNAc
Outline: as §1

[36] = target: Fuc(a1-2)[Gal(a1-4)]Gal(b1-4)GlcNAc
Outline: as §1

[37] = target: Fuc(a1-2)[GalNAc(a1-3)]Gal
Outline: as §1

[38] = target: Fuc(a1-2)[GalNAc(a1-3)]Gal(b1-3)GalNAc(a1-3)[Fuc(a1-2)]Gal(b1-4)GlcNAc
Outline: as §1

[39] = target: Fuc(a1-2)[GalNAc(a1-3)]Gal(b1-3)GalNAc(b1-3)Gal(a1-4)Gal(b1-4)Glc
Outline: as §1

[40] = target: Fuc(a1-2)[GalNAc(a1-3)]Gal(b1-3)GlcNAc
Outline: as §1

[41] = target: Fuc(a1-2)[GalNAc(a1-3)]Gal(b1-3)GlcNAc(b1-2)Man(a1-3)[Fuc(a1-2)[GalNAc(a1-3)]Gal(b1-3)GlcNAc(b1-2)Man(a1-6)]Man(b1-4)GlcNAc(b1-4)GlcNAc
Outline: as §1

[42] = target: Fuc(a1-2)[GalNAc(a1-3)]Gal(b1-3)GlcNAc(b1-2)Man(a1-3)[Fuc(a1-2)[GalNAc(a1-3)]Gal(b1-3)GlcNAc(b1-2)Man(a1-6)]Man(b1-4)GlcNAc(b1-4)[Fuc(a1-6)]GlcNAc
Outline: as §1

[43] = target: Fuc(a1-2)[GalNAc(a1-3)]Gal(b1-3)GlcNAc(b1-3)GalNAc
Outline: as §1

B1: LecB PA14 (Pseudomonas aeruginosa) (protein)
chain: MATQGVFTLPANTQFGVTAFANSAGTQTVNVQVNNETVATFTGQSTNNAIIGSKVLNSGGGGKVQILVSVNGRSSDLVSAQVILANELNFALVGSEDSTDNDYNDAVVVINWPLG
[1]
  glycan array binding signal (z-score): 0.727
[2]
  glycan array binding signal (z-score): -0.189
[3]
  glycan array binding signal (z-score): -0.645
[4]
  glycan array binding signal (z-score): 0.049
[5]
  glycan array binding signal (z-score): 2.52
[6]
  glycan array binding signal (z-score): -0.469
[7]
  glycan array binding signal (z-score): 0.404
[8]
  glycan array binding signal (z-score): -0.289
[9]
  glycan array binding signal (z-score): -0.392
[10]
  glycan array binding signal (z-score): 10.2
[11]
  glycan array binding signal (z-score): 7.29
[12]
  glycan array binding signal (z-score): -0.206
[13]
  glycan array binding signal (z-score): -0.255
[14]
  glycan array binding signal (z-score): -0.574
[15]
  glycan array binding signal (z-score): 0.146
[16]
  glycan array binding signal (z-score): 1.31
Fuc(a1-2)Gal6S(b1-4)Glc
  glycan array binding signal (z-score): 1.07
[17]
  glycan array binding signal (z-score): -0.548
Fuc(a1-2)[Gal(a1-3)]Gal
  glycan array binding signal (z-score): -0.002
[18]
  glycan array binding signal (z-score): -0.726
[19]
  glycan array binding signal (z-score): -0.475
[20]
  glycan array binding signal (z-score): -0.06
[21]
  glycan array binding signal (z-score): -0.734
[22]
  glycan array binding signal (z-score): 0.714
[23]
  glycan array binding signal (z-score): -0.161
[24]
  glycan array binding signal (z-score): -0.543
[25]
  glycan array binding signal (z-score): -0.202
[26]
  glycan array binding signal (z-score): -0.7
[27]
  glycan array binding signal (z-score): -0.152
[28]
  glycan array binding signal (z-score): -0.678
[29]
  glycan array binding signal (z-score): 0.375
[30]
  glycan array binding signal (z-score): -0.743
[31]
  glycan array binding signal (z-score): -0.457
[32]
  glycan array binding signal (z-score): -0.301
[33]
  glycan array binding signal (z-score): -0.072
[34]
  glycan array binding signal (z-score): -0.365
[35]
  glycan array binding signal (z-score): 0.321
[36]
  glycan array binding signal (z-score): 2.07
[37]
  glycan array binding signal (z-score): 0.581
[38]
  glycan array binding signal (z-score): -0.321
[39]
  glycan array binding signal (z-score): -0.581
[40]
  glycan array binding signal (z-score): -0.497
[41]
  glycan array binding signal (z-score): -0.053
[42]
  glycan array binding signal (z-score): 0.154
[43]
  glycan array binding signal (z-score): -0.47

From the supplement of paper PMC8728848
